Some of the results follow. At the low end of the ranking the order means little.
What follows are sequences tested against SIX1-Q177R homeodomain (UniProt Q15475) (assay: universal protein binding microarray). Conditions: Universal all-10-mer PBM (8x60K, AMADID 030236), 300 nM GST-tagged protein, Alexa Fluor 488 anti-GST; buffer, salt, pH and temperature not stated; high values mean tight binding; most listed sequences are background and not binding sites; double strand, one strand shown.

| Sequence | binding signal |
| --- | --- |
| GACTGTAC | -0.00257 E-score |
| GAACGTTA | -0.262 E-score |
| GTTGTATA | 0.0198 E-score |
| ATACCTCG | 0.147 E-score |
| ACACTAAA | 0.345 E-score |
| ATGGCATC | -0.062 E-score |
| GCCGCGAA | -0.212 E-score |
| GCTCAAGC | -0.123 E-score |
| CACACTAG | 0.25 E-score |
| AACTCTAT | -0.171 E-score |
| CGTATTGC | -0.21 E-score |
| ATTCTGGC | -0.152 E-score |
| AAGTCGCG | -0.0815 E-score |
| GAAAAGAA | -0.128 E-score |
| AGAAATGG | -0.162 E-score |
| CACATACG | -0.125 E-score |
| ACGCGCCG | 0.0317 E-score |
| ACTGATAC | 0.295 E-score |
| CACGTCCC | 0.165 E-score |
| ATGGCCGG | -0.0547 E-score |
| CGTATATC | -0.0244 E-score |
| CTTCGCAC | 0.0189 E-score |
| GCATGCGC | -0.202 E-score |
| ACACCTTA | 0.456 E-score |
| AAGGGGTA | 0.287 E-score |

| Sequence | binding signal |
| --- | --- |
| GCACGATA | 0.0723 E-score |
| ATCCCGTC | 0.0998 E-score |
| AGAGTCGC | -0.0679 E-score |
| ATAGACCA | -0.166 E-score |
| ACTTAGGA | 0.0182 E-score |
| CAACGCAA | -0.146 E-score |
| CCCTAAAC | -0.0377 E-score |
| CAAGAATG | -0.178 E-score |
| AGCCGAAG | -0.0867 E-score |
| CCCTCCGA | 0.161 E-score |
| ACTAGTTG | -0.0799 E-score |
| CTTTAGAC | -0.0885 E-score |
| AAGTCAGA | -0.137 E-score |
| AATTGTAC | -0.0678 E-score |
| AACATGGA | -0.176 E-score |
| AGAAACTG | -0.0259 E-score |
| AACCCGGT | 0.114 E-score |
| ATCAAGTA | 0.0909 E-score |
| ATTATTCG | -0.114 E-score |
| AATAGGAA | -0.135 E-score |
| AAGCCAGG | -0.0613 E-score |
| TCCTTCAA | -0.15 E-score |
| ACCGATCA | -0.124 E-score |
| GGCTTGGA | -0.00594 E-score |
| GGGGATTA | 0.123 E-score |

| Sequence | binding signal |
| --- | --- |
| AACCACAC | 0.281 E-score |
| CCAGCTCC | 0.0734 E-score |
| ACCTCATG | 0.136 E-score |
| AGAGTTCA | -0.187 E-score |
| CTTCGAGC | -0.239 E-score |
| CTGCTGTA | -0.113 E-score |
| TACACAGA | 0.152 E-score |
| CGGATTTC | -0.149 E-score |
| CCACAACA | 0.139 E-score |
| AACTAGAA | -0.00851 E-score |
| AGATCTCA | -0.146 E-score |
| GGGCTCAA | -0.0773 E-score |
| ATTCTGAC | -0.0321 E-score |
| TAATTTGA | -0.155 E-score |
| GGGAAAGA | -0.122 E-score |
| ACCCGCGG | 0.171 E-score |
| GCGGACCA | -0.0845 E-score |
| AAGAGCAA | 0.0372 E-score |
| CGATTTGC | -0.0484 E-score |
| ACAACGGT | 0.0353 E-score |
| CGACCGAA | -0.182 E-score |
| ATAGTAAC | -0.041 E-score |
| GCTTAACA | 0.171 E-score |
| CGGCCTAC | 0.0186 E-score |
| CATACATC | -0.00473 E-score |

| Sequence | binding signal |
| --- | --- |
| AACAATCA | -0.107 E-score |
| ATGAACAG | -0.173 E-score |
| ACGGAGTC | 0.181 E-score |
| GTGATACA | 0.172 E-score |
| CACTTCTC | 0.101 E-score |
| CGCATCCG | -0.0492 E-score |
| CCGTCCTA | -0.147 E-score |
| CCTCGCTC | -0.000145 E-score |
| CGACGAAA | -0.321 E-score |
| ACAGAGAC | 0.0948 E-score |
| AAAGTGGA | -0.197 E-score |
| CCCACAGA | 0.0594 E-score |
| AGGTAAAT | -0.0303 E-score |
| ACCTGGCC | 0.081 E-score |
| GCTTAAAA | -0.217 E-score |
| AAAAAGCC | -0.261 E-score |
| GAACATAA | -0.354 E-score |
| AGATGCAG | -0.153 E-score |
| AATAAGTC | -0.199 E-score |
| CTGCTTCC | -0.203 E-score |
| CATTGGAC | 0.000505 E-score |
| ACCCCCGG | 0.305 E-score |
| ATAGACGA | -0.149 E-score |
| CGTAACTA | -0.0947 E-score |
| ATCGTTGA | -0.188 E-score |

| Sequence | binding signal |
| --- | --- |
| ATTACTTA | -0.101 E-score |
| CCTTAGCC | -0.0382 E-score |
| CCCAGCCA | 0.106 E-score |
| AGGGTCCG | 0.0921 E-score |
| CCTAGCGC | -0.206 E-score |
| ACGTCTCG | -0.093 E-score |
| CTCACCAG | -0.039 E-score |
| CAAGGGTG | 0.252 E-score |
| AGGCGTCA | 0.13 E-score |
| CCGGACAG | -0.132 E-score |
| ACTGCGCC | -0.144 E-score |
| AATGCCAG | -0.359 E-score |
| CGACGTAC | 0.117 E-score |
| CCATCGAG | 0.104 E-score |
| CCCGTCCA | -0.0257 E-score |
| CGCGTTGA | -0.0432 E-score |
| ACGGATAG | 0.0733 E-score |
| ATCCACTG | -0.0855 E-score |
| TTCGGAAA | -0.305 E-score |
| ATGTTACC | -0.000635 E-score |
| ACTTACGG | 0.0716 E-score |
| GACGGAGA | -0.125 E-score |
| CTGGATAC | 0.222 E-score |
| AAACAATT | -0.248 E-score |
| ACTGCGAA | -0.296 E-score |

| Sequence | binding signal |
| --- | --- |
| ACATGTAA | 0.0357 E-score |
| GTTTTCTA | -0.0704 E-score |
| CCATATCG | 0.0847 E-score |
| GACATAAA | -0.143 E-score |
| TGCACGCA | 0.0617 E-score |
| CCTTAGAA | 0.103 E-score |
| ACTAGAAG | -0.0287 E-score |
| CACGTCGA | 0.177 E-score |
| ACTGTACG | -0.094 E-score |
| GGAGCAAA | -0.23 E-score |
| ATACGATA | 0.0741 E-score |
| CAATTATA | -0.253 E-score |
| CCCTTGTA | 0.208 E-score |
| TGCAACAA | -0.0271 E-score |
| CAGCTAAG | -0.11 E-score |
| AAAGTATA | -0.158 E-score |
| AGGGGAAG | 0.123 E-score |
| GGAAGCCA | -0.235 E-score |
| AACGTGGT | -0.0159 E-score |
| CTATCGGA | -0.072 E-score |
| CGTCACTA | 0.0632 E-score |
| AGGTCCTA | -0.0921 E-score |
| ACAGGCCG | -0.0796 E-score |
| ATCGGCAG | -0.081 E-score |
| CATACGCC | 0.0823 E-score |

| Sequence | binding signal |
| --- | --- |
| TCCCGCGA | 0.0888 E-score |
| CATGAATA | -0.0546 E-score |
| AACGCTAG | 0.0725 E-score |
| CATGGCGC | -0.159 E-score |
| GAGGAGAA | -0.0834 E-score |
| GGCTCCCC | -0.00441 E-score |
| GCATCTTA | -0.139 E-score |
| CATGTAGA | -0.0744 E-score |
| ACGGAGTG | 0.167 E-score |
| ACAGACGC | 0.0512 E-score |
| AATAATAT | -0.0332 E-score |
| CCCTACGC | 0.0375 E-score |
| GGTCAGGA | 0.0543 E-score |
| ACGTCGCC | -0.0847 E-score |
| CTAGTGGA | 0.0148 E-score |
| CCAGAAAA | 0.0038 E-score |
| CGGGTCTA | 0.0718 E-score |
| CTGCCGCA | -0.165 E-score |
| GAGTCGGC | 0.0544 E-score |
| AGCGGACT | -0.249 E-score |
| GTCTGGGA | -0.116 E-score |
| CCTGCGTC | -0.0174 E-score |
